Test results taken from PubChem BioAssay AID493208 (National Center for Advancing Translational Sciences (NCATS), 2011).
The whole screen tested about 44,000 compounds, of which about 340 (0.77%) were called active. Inconclusive results (about 5%) are left out. The call rests on the fitted dose curve; in most records, active means well fitted inhibition curve with a large enough effect; inconclusive means small, poorly fitted or top-dose-only effect; inactive means flat fitted curve, though single readings scatter. Some of the results follow.

experiment: Acumen qHTS Assay for Inhibitors of the mTORC1 Signaling Pathway in MEF (Tsc2-/-, p53-/-) Cells: Sytravon; settings: phospho-rpS6 immunofluorescence/PI, 24 h; series mostly up to 38.3 µM; activity change, negative = inhibition: at the top concentration;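 further: plate controls were DMSO for no effect and rapamycin for full effect; nearly all actives have a fitted effect of over 50% in size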
Method in brief: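 Cell-based qHTS: Tsc2-/- p53-/- MEF, 24 h cpd, 37 °C; fix/perm, anti-phospho-S6 Alexa-488 + PI; Acumen 488 nm scan; pS6/PI ratio, % positive cells; rapamycin 7.5 nM = inhibition ref; PI count = viability.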

Activity change, negative = inhibition, inactive:
COCCCNC(=O)c1[nH]c2ccccc2c1Sc1ccc(C)cc1 -15.9%
CN(C)c1ccc(CNC(=O)c2cnc3sc(N4CCCC4)nn3c2=O)cc1 -4.04%
Cc1ccccc1NC(=O)Cn1c(=O)n(CCCCCC(=O)NCc2ccccc2Cl)c(=O)c2sccc21 -15.2%
CCS(=O)(=O)N1CCc2cc(C(=O)NCc3ccc(Cl)cc3)ccc21 -5.84%
O=C(Cc1ccccc1)N(Cc1cccnc1)c1nc2ccc(Cl)cc2s1 -6%
CCCOc1ccc(C(=O)Nc2ccc3oc(-c4ccc5ccccc5c4)nc3c2)cc1 2.92%
COc1ccc(NC(=O)c2ccc3c(SCC(=O)O)c4c(nc3c2)CCCC4)cc1OC 0.472%
CCOC(=O)c1c(C)oc2ncnc(N3CCN(c4ccc(C)cc4C)CC3)c12 2.22%
O=C(NCCc1ccccc1)c1cc(-c2ccc(Br)cc2)on1 -7.59%
CCOC(=O)c1cccc(-n2nnc3c(sc4nc(C)c(Br)c(C)c43)c2=O)c1 -2.78%
Cc1sc2ncn(CC(=O)Nc3ccc(F)cc3Cl)c(=O)c2c1S(=O)(=O)N1CCN(c2ncccn2)CC1 -2.15%
Cn1c(=O)c2c(nc(Oc3ccc(C#N)cc3)n2Cc2ccc(Cl)cc2Cl)n(C)c1=O -9.58%
CCOC(=O)c1ccccc1NC(=O)Cn1c(=O)n(CCC(=O)NCc2ccccc2OC)c(=O)c2ccccc21 -24.7%
COc1cccc(-c2nnc3n(Cc4ccc(C)cc4)c(=O)c4ccccc4n23)c1O 3.03%
CCN1CCN(c2csc3ccc(F)cc3c2=O)CC1 1.28%
CCCCN(Cc1cccs1)S(=O)(=O)c1cc(-c2cc(C)no2)ccc1C -12.5%
Cc1cccn2c(=O)cc(CSc3nnc(NC(=O)COc4ccc(F)cc4)s3)nc12 -4.42%
COc1cccc(CNC(=O)c2[nH]c3cc(C)ccc3c2Sc2ccccc2)c1 0.502%
CCOC(=O)c1c(S(=O)(=O)NCC(=O)N2CCN(c3cccc(Cl)c3)CC2)c(C)n(C)c1C -0.159%
COc1ccc(-c2nc3scc(CCNS(=O)(=O)c4c(C)noc4C)n3n2)cc1OC -14.9%
COc1ccccc1NC(=O)c1oc2ccccc2c1NC(=O)C(C)C -1.47%
Cc1cccc(NC(=O)CSc2nnc3scc(-c4ccccc4)n23)c1 0.892%
COc1cccc(-c2nnc(-c3cc4cc(Cl)ccc4oc3=O)o2)c1 7.14%
O=C1CCc2cc(S(=O)(=O)NCc3ccc(Cl)cc3)cc3c2N1CC3 0%
COc1cc(-c2noc(CSc3nc(-c4ccc(F)cc4)cc(=O)[nH]3)n2)cc(OC)c1OC -21.1%
CCC1CCC(C(=O)NC(C(=O)NCCN(CC(C)C)CC(C)C)C(C)C)CC1 (stereo unspecified) -11%
COc1ccccc1NC(=O)Cn1cnc2c(nc3n2CCCCC3)c1=O 1.9%
O=c1c(N2CCN(c3cccc(C(F)(F)F)c3)CC2)csc2ccccc12 1.16%
CC1CCN(S(=O)(=O)c2ccc3c(c2)c(=O)c(C(=O)NCc2ccc(Cl)cc2)cn3C)CC1 3%
Cc1ccccc1CNC(=O)c1ccccc1NC(=O)c1nsc2ccccc12 -18.2%
CC(C)(C)c1ccc(CSc2nc3c(c(=O)[nH]2)CCCC3)cc1 -0.812%
O=C(Nc1ccc(Cl)c(C(F)(F)F)c1)C1CCCN(S(=O)(=O)c2cccc3cccnc23)C1 (stereo unspecified) -0.126%
O=C(Nc1ccc(F)cc1)N1CCN(c2ccc3nnc(-c4ccc(F)cc4)n3n2)CC1 -0.246%
Cc1ccc(-n2nnc(-c3nsc(NC(=O)c4ccccc4C)n3)c2C)cc1Cl -5.02%
CCOc1ccc(Nc2c(S(=O)(=O)c3ccc(Cl)cc3)cnc3ccc(OC)cc23)cc1 -0.318%
COc1cccc(CN2C(=O)N(c3ccc(C)cc3)C(=O)C2CC(=O)Nc2cc(OC)cc(OC)c2)c1 (stereo unspecified) -0.376%
COc1ccc(-c2cn3c(n2)sc2cc(C(=O)NCc4cccs4)ccc23)cc1 7.7%
COc1ccc(-c2c3c(=O)n(C)c(=O)n(C)c3cn2-c2cccc(N)c2)cc1 0.927%
CCOC(=O)CC(NC(=O)CCc1c(C)nc2c(-c3ccccc3)c(C)nn2c1C)c1ccc(C)cc1 (stereo unspecified) -9.65%
Cc1ccc(CNC(=O)C2CCN(C(=O)c3ccc(-n4ccc5ccccc54)s3)CC2)cc1 -5.62%
COc1ccc(Cn2ccc3nc(C)c(C(=O)Nc4ccc(F)cc4)cc3c2=O)cc1 -22.6%
CCn1cc(C(=O)NCCc2ccc(Cl)cc2)c(=O)c2cc(S(=O)(=O)N3CCc4ccccc4C3)ccc21 -12%
COCCCNC(=O)c1[nH]c2cc(OC)ccc2c1Sc1ccc(C)cc1 -1.18%
Cc1c(NC(=O)Cc2ccc(F)cc2)cccc1-c1nc2cccnc2s1 -0.455%
Cc1cccc(NC(=O)CSc2nc3ccc(NC(=O)COc4ccc(Cl)cc4)cc3s2)c1 -23.5%
Fc1ccc(-c2nc(-c3cccs3)c(-c3cccs3)[nH]2)cc1 -9.07%
Cc1cccc(NC(=O)c2cc3c(=O)n(Cc4ccco4)ccc3nc2C)c1 -3.49%
Cc1nn(-c2ccccc2)c2c1N(CC(=O)NCc1ccc(N(C)C)cc1)C(=O)CS2 -7.03%
O=C(NCCOCCO)C(=O)Nc1c2c(nn1-c1ccc(F)cc1)CSC2 1.46%
CCC(=O)N1CCc2cc(S(=O)(=O)CCC(=O)N3CCN(c4ccccc4Cl)CC3)ccc21 -4.61%
CN(c1ncnc2c1c(-c1ccccc1)cn2-c1ccc(F)cc1)C1CCCCC1 -14.7%
Cc1ccc(N(Cc2cccs2)C(=O)c2ccccc2)cc1 1.36%
COc1ccc(-c2nc3ccc(NS(C)(=O)=O)cc3o2)cc1 1.41%
Clc1ccccc1Cn1cccc1C1=NC(Cc2ccccc2)CO1 (stereo unspecified) 2.77%
O=C(O)c1ccc(Nc2nc(-c3ccccc3)c3cc(Br)ccc3n2)cc1 0.0912%
Cn1c(SCC(N)=O)nc2c([nH]c3ccccc32)c1=O -9.71%
Cc1onc(-c2ccc(Br)cc2)c1C(=O)Nc1ccc(Br)cc1F -7.18%
CCOC(=O)c1scc(-c2ccc(C)cc2)c1S(=O)(=O)Nc1cccc(CC)c1 -20.1%
COc1ccc(-n2c(SCC(=O)Nc3nnc(C)s3)nc3c([nH]c4ccccc43)c2=O)cc1 2.88%
COc1cccc2sc(N3CCN(C(=O)CS(=O)(=O)c4ccc(Cl)cc4)CC3)nc12 0.765%
CC(C)N(C(=O)c1cc2c(Cl)nc3ccccc3c2s1)C1CCCCC1 -3.75%
